In all, about 130,000 compounds went through this assay and about 1,900 (1.5%) were called active. The inconclusive results got no clear call from the source; some entries with a clear call stand among them for comparison. The call rests on the fitted dose curve; in most records, active means well fitted cell-killing curve with a large enough effect; inconclusive means small, poorly fitted or top-dose-only effect; inactive means no such curve, though single readings can be large or run the other way. Potencies beside an inconclusive call are fits to weak or partial responses and may not hold up.
Assay: qHTS Screen for Compounds that Selectively Target Cancer Cells with p53 Mutations: Cytotoxicity of p53ts Cells at the Nonpermissive Temperature; further: nearly all actives have a fitted effect of over 55% in size
Settings: H1299-p53A138V viability at 39C, ATP luminescence, 24 h; activity change, negative = cell killing: at 46.1 µM (top of the series)
From the text: NIH Chemical Genomics Center [NCGC] NIH Molecular Libraries Screening Centers Network [MLSCN] MLSCN Grant: 1 X01 MH079844-01 Assay Submitter (PI): Dr. SUN, YI, University of Michigan NCGC Assay Overview: Synthetic Lethal Screen for Compounds to Kill Cancer Cells with p53 Mutation. Tumor suppressor gene p53 serves as a major cellular barrier against tumorigenesis. […] The goal of this screening is to identify small molecule probes that selectively kill cancer cells with mutations in p53. This screening was carried out using two lines of H1299 lung cancer cells. The H1299-p53 A138V line express a temperature sensitive p53 mutant (p53ts) in which the mutant p53 protein (A138V) is in the mutant confirmation when grown at 39C (the nonpermissive temperature) and in the wild type conformation when grown at 32C (the permissive temperature). A H1299-neo line (p53 null) grown at both 39C and 32C were used as counter-screens to filter out false positive associated with temperature shifting. The small molecular compounds that selectively target mutant p53-containing cancer cells were selected as candidate probes for further study. A cytotoxicity assay based on the measurement of ATP contents in cells was used in this screen. Concentration-responses of all the compounds in the library collection were determined in qHTS using the cell lines and temperature conditions as above.
NCGC Assay Protocol Summary: Both the H1299-p53A138V and H1299-neo cell lines were provided by Dr.Yi Sun, a PI at the University Michigan. The cells were maintained and cultured at 37C. The resuspended frozen cells were used to plate the cells in the 1536-well assay plates at a density of 600 cells per well in 5 ul medium. The assay plates with the cells were incubated at 37C for 16 to 30 hours before the experiments. The library compounds in DMSO solution were added to the cells in assay plates and incubated 24 hours at 39C (for mutant p53 conformation) or 32C (for normal p53 conformation as control). An ATP_lite assay kit (PerkinElmer) was used to determine the cell viability. Tomaxifen (100uM) was used as the positive control for cell killing. Data were normalized to the controls for basal activity (DMSO only) and 100% killing (100uM tamoxifen). AC50 values were determined from concentration-response data modeled with the standard Hill equation. P53 assay protocol: 1. Reagent; 5 uL H1299-p53A138V or H1299-neo cell cells/well 2. Time; overnight; 37C incubation 3. Compounds; 23 nL; 5.9 nM to 46 uM 4. Controls; 23 nL; Tamoxifen 100 uM 5. Time; 24 hr; 39C incubation 6. Reagent; 3 uL; ATP_Lite reagent 7. Time; 20 min; Room Temperature 8. Detection; Luminescence; Viewlux plate reader Keywords: p53, synthetic lethal, cancer, cell viability, cytotoxicity, H1299 cell line, luminescence, MLSMR, MLSCN, NIH Roadmap, qHTS, NCGC
In the case of COc1ccc(NC(=O)C2CCCN(S(=O)(=O)c3ccc(F)cc3)C2)cc1 (configuration not stated), the activity change, negative = cell killing is reported as inconclusive: -33% [cytotoxic].
With CCc1nnc(NC(=O)CSc2nc3c([nH]c4ccccc43)c(=O)n2-c2ccc(Cl)cc2)s1 the Potency was inconclusive: 7.94 µM [cytotoxic, partial curve, poor fit].
In the case of COC(=O)c1ccc(NC(=O)C(=O)NCCc2csc(-c3ccc(F)cc3)n2)cc1, the “activity change, negative = cell killing” value is reported as inactive: -0.984%.
For O=C(CSc1ncccc1C(=O)Oc1ccccc1Cl)Nc1ccc(C(F)(F)F)cc1Cl, the Potency was inconclusive: 20 µM [cytotoxic, partial curve].
In the case of CCOc1ccc(C(=O)Nc2nnc(SCc3cc(=O)n4ccccc4n3)s2)cc1, the Potency is reported as inconclusive: 0.0251 µM [cytotoxic, full curve].
With CCN(Cc1ccccc1)S(=O)(=O)c1cc(Br)cc2c1N(C(=O)C1CC1)CC2 the “activity change, negative = cell killing” value was inactive: 10.3%.
For COc1ccccc1C(=O)Nc1c(C(=O)NC(C)(C)C)oc2ccccc12, the “activity change, negative = cell killing” value was inactive: -15.3%.
For Cc1ccc(NC(=O)/C=C/c2ccccc2Cl)cc1Cl, the Potency was inconclusive: 12.6 µM [cytotoxic, single point].
In the case of CCCCOC(=O)c1ccc(NC(=O)c2sc3nc(C)cc(C)c3c2N)cc1, the Potency is reported as inconclusive: 15.8 µM [cytotoxic, single point].
For COc1ccc(N(C)C(=O)Cn2cc(S(=O)(=O)N3CCN(c4ccccc4F)CC3)c3ccccc3c2=O)c(OC)c1, the “activity change, negative = cell killing” value was inactive: -7.41%.
With CC1CCN(c2ccc(-c3cccc(NS(=O)(=O)c4ccc(F)cc4F)c3)nn2)CC1 the Potency was active: 12.6 µM.
With CC[C@H](C)[C@@H]1O[C@]2(CC[C@@H]1C)C[C@H]1C[C@H](CC=C(C)[C@@H](O[C@H]3C[C@H](OC)[C@H](O[C@H]4C[C@H](OC)[C@H](O)[C@H](C)O4)[C@H](C)O3)[C@@H](C)C=CC=C3CO[C@@H]4[C@@H](O)C(C)=C[C@H](C(=O)O1)[C@@]34O)O2 the Potency was active: 5.01 µM.
In the case of Clc1ccc(OCc2nc(-c3ccncc3)no2)c(Br)c1, the Potency is reported as inconclusive: 12.6 µM [cytotoxic, single point].
In the case of Cc1ccccc1Nc1c(-c2ccc(N3CCOCC3)cc2)nc2ccc(Br)cn12, the Potency is reported as inconclusive: 12.6 µM [cytotoxic, single point].
In the case of O=C(Cn1cnc2ccccc2c1=O)OCC(=O)c1ccc2c(c1)OCCO2, the “activity change, negative = cell killing” value is reported as inactive: 10.2%.
In the case of CNC(=O)CN1C(=O)COc2ccc(S(=O)(=O)N3CCC(C)CC3)cc21, the “activity change, negative = cell killing” value is reported as inactive: -0.596%.
For Cc1ccc(S(=O)(=O)Oc2ccc(C)cc2/C=N/N=C2\NC(=O)C(C)S2)cc1 (configuration not stated), the Potency was inconclusive: 17.8 µM [cytotoxic, single point].
For CC(C)Cn1c(-c2cccc(Br)c2)nc2ccccc21, the “activity change, negative = cell killing” value was inactive: -25.5%.
With COc1cc(NC(=O)CSc2nc3nc(C)c(Cc4ccccc4Cl)c(C)n3n2)cc(OC)c1 the Potency was inconclusive: 20 µM [cytotoxic, partial curve, poor fit].
With Cc1cc(C)cc(NC(=O)Cc2noc3ccccc23)c1 the Potency was inconclusive: 2.51 µM [cytotoxic, partial curve, poor fit].
With CCc1c(C)c2cc3c(c(C)c2oc1=O)OCN(CCc1ccccc1F)C3 the Potency was inconclusive: 5.01 µM [cytotoxic, partial curve].
With O=C(CSc1nc(-c2cccc(F)c2)[nH]c1-c1ccccc1)Nc1ccc2c(c1)OCO2 the Potency was inconclusive: 31.6 µM [cytotoxic, partial curve, poor fit].
For c1cn(-c2ncnc3ccc(-c4ccoc4)cc23)cn1, the Potency was inconclusive: 25.1 µM [cytotoxic, single point].
In the case of CSc1ccccc1NC(=O)CCS(=O)(=O)c1nc(-c2ccc3c(c2)OCO3)cc(C(F)(F)F)n1, the Potency is reported as active: 3.98 µM.
In the case of COC(=O)c1ccccc1NS(=O)(=O)c1cc2c(cc1C)N(C)CCO2, the “activity change, negative = cell killing” value is reported as inactive: 3.93%.
For COc1ccc(-c2nc3sc(CCNC(=O)c4ccc(Br)o4)c(C)n3n2)cc1, the Potency was inconclusive: 10 µM [cytotoxic, partial curve].
For Cc1nc(NC2CCCCC2)c2nc(-c3ccccc3)n(CCN3CCCC3)c2n1, the “activity change, negative = cell killing” value was inactive: -18.4%.
With O=C(O)c1ccccc1C(=O)Nc1ccc(Br)c2cccnc12 the Potency was inconclusive: 15.8 µM [cytotoxic, single point].
For COCCNC(=O)c1cc(-c2cccc(OC)c2)on1, the Potency was inconclusive: 15.8 µM [cytotoxic, partial curve].
In the case of Oc1c(C(Nc2ccccn2)c2ccccc2F)ccc2cccnc12 (configuration not stated), the Potency is reported as active: 10 µM.
In the case of CN1CCN(c2ncnc3c2cnn3-c2cccc(Cl)c2)CC1, the Potency is reported as inconclusive: 20 µM [cytotoxic, partial curve, poor fit].
In the case of COc1cc(OC)c(OC)cc1/C=C/c1nc2cc3ccccc3cc2c(=O)n1-c1ccccc1Br, the Potency is reported as inconclusive: 0.005 µM [cytotoxic, full curve, poor fit].
In the case of COc1ccc(-c2nc3cnc(N4CCOCC4)nc3n(CCc3ccccc3)c2=O)cc1, the “activity change, negative = cell killing” value is reported as inactive: 6.06%.
With COc1ccc(C(Nc2ccccn2)c2ccc3ccc(C)nc3c2O)cc1C (configuration not stated) the Potency was inconclusive: 12.6 µM [cytotoxic, partial curve].
With CCCNC(=O)OC[C@H]1O[C@@H](CCO/N=C2/C[C@@H](O)[C@@H](O)[C@@H]3[C@@H]4C(=O)N(CC)C(=O)[C@H]4CC[C@@H]23)C=C[C@@H]1Oc1ccc(OC)cc1 the activity change, negative = cell killing was inactive: -2.89% [at 9.22 µM].
With COc1ccccc1NC(=O)c1oc2ccccc2c1NC(=O)c1ccco1 the Potency was inconclusive: 20 µM [cytotoxic, single point].
For Cc1cccc(NC(=O)CN2C(=O)C3(SCC(=O)N3c3ccccc3)c3ccccc32)c1 (configuration not stated), the “activity change, negative = cell killing” value was inactive: 12.7%.
For Cc1cn(C)c(CC(=O)NCc2ccc(Cl)cc2)c1C(=O)O, the “activity change, negative = cell killing” value was inactive: -8.42%.
In the case of O=c1c(-c2ccccc2)coc2cc(O)cc(O)c12, the Potency is reported as inconclusive: 31.6 µM [cytotoxic, single point].
In the case of COc1ccc(-n2nc3c(N4CCC(C(=O)NCc5ccccc5C)CC4)nnc(C)c3c2C)cc1, the Potency is reported as inconclusive: 7.94 µM [cytotoxic, full curve, poor fit].
For CCOC(=O)N1CCC(NC(=O)c2c(C)nn(-c3cccc(C)c3)c2-n2cccc2)CC1, the “activity change, negative = cell killing” value was inactive: -13.9%.
With COc1ccc(OC)c(CCNC(=O)CCCn2c(=O)c3cccn3c3ccc(F)cc32)c1 the Potency was inconclusive: 15.8 µM [cytotoxic, single point].
For Cc1ccc2c(=O)c(C(=O)c3cccc(Cl)c3)cn(CC(=O)NC3CCCCC3)c2n1, the “activity change, negative = cell killing” value was inactive: 6.16%.
In the case of COc1ccc(NC(=O)CCC(=O)N/N=C/c2ccc([N+](=O)[O-])s2)cc1, the Potency is reported as inconclusive: 15.8 µM [cytotoxic, single point].
For COC(=O)c1cc(=O)[nH]c(SCc2cccc(C)c2)n1, the “activity change, negative = cell killing” value was inactive: -5.77%.
In the case of O=c1c2ccccc2nnn1CSc1nnc(-c2cccnc2)n1-c1ccccc1F, the “activity change, negative = cell killing” value is reported as inactive: -8.77%.
With COc1cccc(NC(=O)c2c(-c3ccc(C)cc3)nnc3ccccc23)c1 the “activity change, negative = cell killing” value was inactive: -14.9%.
With Cc1cc(C)c(S(=O)(=O)Nc2ccc3oc4c(c3c2)CCCC4)cc1C the Potency was inconclusive: 25.1 µM [cytotoxic, single point].
In the case of CC(CNC(=O)CCn1c(=O)c2cccn2c2ccc(F)cc21)c1ccccc1 (configuration not stated), the Potency is reported as inconclusive: 5.62 µM [cytotoxic, single point].
In the case of Cc1ccc(-c2cn3c(n2)sc2cc(C(=O)NCCC4=CCCCC4)ccc23)c(C)c1, the “activity change, negative = cell killing” value is reported as inactive: -14.6%.
In the case of CCCN(Cc1cccs1)C(=O)Nc1cc(C)ccc1OC, the Potency is reported as inconclusive: 0.0501 µM [cytotoxic, full curve, poor fit].
With Oc1cccc(-c2nc3ccccc3s2)c1 the Potency was active: 10 µM.
In the case of CCc1nn(CC(=O)Nc2ccc(C)c(F)c2)c(=O)c2cc3cc(C)ccc3n12, the Potency is reported as active: 31.6 µM.
With CCOc1ccc(OCC)c(NC(=O)c2nnn(Cc3cc(Br)ccc3OC)c2N)c1 the Potency was inconclusive: 15.8 µM [cytotoxic, single point].
In the case of O=C(Nc1nc2c(s1)CCCC2)c1ccc2ncsc2c1, the Potency is reported as inconclusive: 12.6 µM [cytotoxic, partial curve].
In the case of Clc1c(-c2nnc3n2CCC3)sc2ccccc12, the Potency is reported as inconclusive: 12.6 µM [cytotoxic, partial curve].
With Cc1cc2oc(C(=O)Nc3sc4c(c3C(=O)NCc3ccco3)CCC4)cc(=O)c2cc1C the Potency was inconclusive: 20 µM [cytotoxic, single point].
In the case of Cc1ccc(C(=O)Nc2ccc3nc(SCC(=O)N4CCc5ccccc54)sc3c2)cc1, the “activity change, negative = cell killing” value is reported as inactive: -1.1%.
For O=C(Nc1ccc(C(F)(F)F)cc1)c1cc(S(=O)(=O)NC2CCCCCC2)ccc1F, the Potency was inconclusive: 31.6 µM [cytotoxic, single point].
For COC(=O)c1ccc(NC(=O)CSc2nc3ccc(OC)cc3[nH]2)cc1, the “activity change, negative = cell killing” value was inactive: -10.6%.
For COC(=O)c1c(C(=O)OC)c2oc3ccccc3n2c1Cl, the “activity change, negative = cell killing” value was inactive: -6.79%.
For CC(C)Cn1cnc2c(SCc3ccc(Cl)cc3Cl)nc(N)nc21, the Potency was inconclusive: 6.31 µM [cytotoxic, single point].
With CCC(Sc1nc2ccccc2c2nc(CCc3c(C)n[nH]c3C)nn12)C(=O)Nc1ccc(F)cc1 (configuration not stated) the Potency was inconclusive: 12.6 µM [cytotoxic, partial curve].
In the case of COc1ccccc1CNS(=O)(=O)c1ccc2[nH]c3c(c2c1)CCCCC3, the Potency is reported as inconclusive: 1.58 µM [cytotoxic, partial curve].
For Cc1ccccc1Cn1cc(CCC(=O)NC(C)c2ccccc2)c2ccccc21 (configuration not stated), the “activity change, negative = cell killing” value was inactive: -9.52%.
In the case of CCOc1ccc(NC(=O)c2oc3ccccc3c2NC(=O)Cc2ccc(F)cc2)cc1, the activity change, negative = cell killing is reported as inconclusive: -44.1% [cytotoxic].
In the case of CCC(C)c1ccc(OCC(=O)Nc2cccc(-c3nc4ncccc4o3)c2)cc1 (configuration not stated), the Potency is reported as inconclusive: 12.6 µM [cytotoxic, single point].

From PubChem BioAssay AID902 (National Center for Advancing Translational Sciences (NCATS), 2007)
On the % scale 0 is the no-effect control and ±100 the full control effect; potency means the concentration at half of the fitted maximal effect; tags describe the fitted curve by direction and shape.
